# According to article PMC4336329 (PLoS ONE, 2015):
# The campaign covered roughly 310,000 compounds. About 14,000 (4.5%) showed an effect of 50% or more. Effects have a minus sign here. Some of the results follow.
# Target: human ether-à-go-go-related gene (hERG) potassium channel (human, UniProt Q12809)
# Assay: primary screen, population patch clamp on CHO cells stably expressing hERG
# 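Note: peak tail current of the secondary pulse compared with the same well before compound.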
# Chain of human ether-à-go-go-related gene (hERG) potassium channel (Q12809 whole entry, looked up): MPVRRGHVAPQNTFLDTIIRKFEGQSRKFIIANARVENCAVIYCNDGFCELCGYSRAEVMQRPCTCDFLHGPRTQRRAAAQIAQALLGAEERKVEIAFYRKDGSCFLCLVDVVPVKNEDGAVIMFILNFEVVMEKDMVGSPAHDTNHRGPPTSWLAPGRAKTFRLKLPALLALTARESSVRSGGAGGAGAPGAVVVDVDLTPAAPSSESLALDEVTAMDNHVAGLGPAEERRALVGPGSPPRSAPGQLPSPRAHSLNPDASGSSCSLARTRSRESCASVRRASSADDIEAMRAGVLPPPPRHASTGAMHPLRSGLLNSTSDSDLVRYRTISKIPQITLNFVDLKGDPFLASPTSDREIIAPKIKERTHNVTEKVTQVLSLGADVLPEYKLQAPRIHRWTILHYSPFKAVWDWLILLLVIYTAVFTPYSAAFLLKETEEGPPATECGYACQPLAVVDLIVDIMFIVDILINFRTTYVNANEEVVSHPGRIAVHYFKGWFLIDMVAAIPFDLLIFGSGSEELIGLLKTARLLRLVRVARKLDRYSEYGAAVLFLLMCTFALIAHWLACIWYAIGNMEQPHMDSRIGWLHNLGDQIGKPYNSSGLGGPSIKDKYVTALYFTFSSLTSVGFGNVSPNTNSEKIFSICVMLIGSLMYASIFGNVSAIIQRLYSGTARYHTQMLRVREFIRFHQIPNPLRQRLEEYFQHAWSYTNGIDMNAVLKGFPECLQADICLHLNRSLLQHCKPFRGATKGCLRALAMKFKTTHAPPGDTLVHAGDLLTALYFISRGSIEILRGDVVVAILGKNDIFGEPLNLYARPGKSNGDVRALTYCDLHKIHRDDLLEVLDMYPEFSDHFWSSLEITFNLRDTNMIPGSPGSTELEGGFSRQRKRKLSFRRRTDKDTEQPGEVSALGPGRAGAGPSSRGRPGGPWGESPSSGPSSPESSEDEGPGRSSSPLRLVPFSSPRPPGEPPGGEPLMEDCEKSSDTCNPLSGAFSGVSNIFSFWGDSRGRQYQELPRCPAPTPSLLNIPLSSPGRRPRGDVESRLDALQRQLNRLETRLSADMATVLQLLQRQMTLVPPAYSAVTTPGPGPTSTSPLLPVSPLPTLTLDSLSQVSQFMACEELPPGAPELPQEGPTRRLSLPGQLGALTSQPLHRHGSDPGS
row,Compound,"hERG current change (%, negative = inhibition) at 10uM [%]"
1,CC1c2[nH]c3ccccc3c2CCN1S(C)(=O)=O (stereo not shown),3.54
2,COc1ccccc1CNC(=O)c1cc2sccc2n1C,0.117
3,COc1ccccc1-n1cc(C(=O)NCC(=O)N2CCN(Cc3ccccc3)CC2)c2ccccc2c1=O,-23.3
4,O=C(Cn1cnc2c(nnn2Cc2ccccc2)c1=O)NCc1ccccc1Cl,5.76
5,O=C(O)c1ccc(NC(=O)c2ccccc2NC(=O)c2ccccc2Br)cc1,12.1
6,C=CCOn1c(=O)c(-c2cc3ccccc3o2)[n+]([O-])c2ccccc21,16.8
7,COc1cccc(-c2onc3ccc(C(C)=O)cc23)c1,9.66
8,Cc1ccc(OCC(=O)Nc2ccccc2Sc2ccccc2)c([N+](=O)[O-])n1,3.03
9,CCCn1c(NC(=O)c2ccc([N+](=O)[O-])o2)nc2ccccc21,-10.8
10,CCn1cc(C(=O)NCc2ccccc2OC)c(=O)c2cc(S(=O)(=O)N(C)C)ccc21,4.32
11,COc1cc2nc(-c3ccccc3C)oc(=O)c2cc1OC,12.8
12,CCC(=O)NNc1ncnc2c1cnn2C,-0.215
13,CSCCC(NC(=O)COc1ccccc1)C(=O)N(C)CC(=O)Nc1c(C)cccc1C (stereo not shown),-0.078
14,CC1CCc2c(sc3[nH]c(=S)n(C)c(=O)c23)C1 (stereo not shown),27.7
15,Cc1c(C)c2ccc(OCC(=O)NCCCn3ccnc3)cc2oc1=O,14
16,NC(N)=N/N=C/c1ccc(OCc2ccc(Cl)cc2)cc1,-27.2
17,Cn1nc([N+](=O)[O-])nc1Oc1ccccc1C(=O)N1CCOCC1,17.4
18,Cn1cc(CNC(=O)C23CC4CC(CC(C4)C2)C3)cn1,19
19,c1ccc(Cn2ncc3c(N4CCCCC4)ncnc32)cc1,-14.8
20,COc1ccc(C2=[N+]([O-])C(C)(C)N(O)C2C)cc1 (stereo not shown),5.42
21,Cc1ccc(NC(=O)Cn2cccc2)c(Br)c1,4.92
22,Cc1cc(=O)[nH]c(SCC(=O)/C=C2\N(C)c3ccccc3C2(C)C)n1,-5.21

row,Compound,"hERG current change (%, negative = inhibition) at 10uM [%]"
1,Cc1ccc2[nH]c3c(=O)n(CC(=O)N4CCN(C)CC4)ncc3c2c1,-1.46
2,COC(=O)c1cc(C(=O)OCC(=O)NC(=O)c2ccccc2)cc([N+](=O)[O-])c1,11.9
3,CC(C)(C)c1cc(NC(=O)NN2CCOCC2)nn1-c1c(Cl)cc(Cl)cc1Cl,13
4,Cc1ccc(Cn2nnnc2CN2CCC(n3nnc4cc(C(F)(F)F)ccc43)CC2)cc1,2.84
5,Cc1ccc(S(=O)(=O)NNC(=O)C2COc3ccccc3O2)cc1 (stereo not shown),5.24
6,COC(=O)C1=C(c2ccc(S(C)(=O)=O)cc2)C[C@@H]2CC[C@H]1N2C(=O)N1CCC(O)CC1,7.91
7,O=C(Nc1nc2ccccc2n1CCN1CCOCC1)c1ccc(COc2ccccc2Br)o1,-32.4
8,CCCN1CCC(=NNc2ccc(C(=O)O)cc2)CC1.O=S(=O)(O)O,8.14
9,COc1ccc(OCC(=O)N/N=C(\C)CC(=O)Nc2ccc(NC(C)=O)cc2)cc1,16.3
10,COC(=O)c1ccc(NC(=O)c2ccccc2N(C)S(=O)(=O)c2ccccc2)cc1,16.3
11,COC(=O)c1c(NC(=O)C2CC=CCC2C(=O)O)sc(C(N)=O)c1C (stereo not shown),-18
12,COc1ccc(/C=C/c2ccncc2)cc1,-1.97
13,CC(=O)OC(C(=O)NC1CCCCC1)c1ccc(C#N)cc1 (stereo not shown),-13.4
14,Cc1cc(C)cc(N(C(=O)c2cccs2)C2C=CS(=O)(=O)C2)c1 (stereo not shown),-2.35
15,C(=N\N1CCN(C2c3ccccc3-c3ccccc32)CC1)/c1ccccn1,10.8
16,C/C=C/c1ccc(OCCOCCNCc2ccccc2)c(OC)c1.O=C(O)C(=O)O,-37
17,COc1ccc(-n2nc(C(=O)NCC(=O)N3CCCCCC3)c3ccccc3c2=O)cc1OC,-9.42
18,O=C(Nc1ccccc1)c1sccc1Oc1ccc([N+](=O)[O-])cc1F,-47.3
19,CCOC(=O)c1ccc(NC(=O)C2(c3ccc(OC)cc3)CCCC2)cc1,4.25
20,Cc1csc(NC(C)c2nc3cc(Cl)c(Cl)cc3n2CCCO)n1 (stereo not shown),-11.7
21,CCNC(=S)N/N=C(\C)c1cccc(OC)c1,-14.9
22,Cc1ccc(C)c(C(=O)N2CCN(c3ncccn3)CC2)c1,5.25

row,Compound,"hERG current change (%, negative = inhibition) at 10uM [%]"
1,COc1ccccc1N1CCN(c2nnc(-c3ccc(F)cc3)c3ccccc23)CC1,10.2
2,Cc1sc2ncnc(N3CCCC(C)C3)c2c1C.Cl (stereo not shown),0.33
3,FC(F)(F)c1cccc(Cc2noc(CN3CCCCC3c3ccccn3)n2)c1 (stereo not shown),-8.11
4,O=C1C(=Cc2cccs2)C(=O)c2ccccc21,12.7
5,COc1ccc(Cl)cc1C(=O)O/N=C(\N)c1ccccn1,2.9
6,COc1ccccc1C(=O)N1CCN(c2cccc(Cl)c2)CC1,0.406
7,NC(=O)C1CCN(C(=O)OCc2ccccc2)CC1,18.8
8,CCOc1ccc(-n2c(=S)sc3c(=O)[nH]c(SCC(=O)C(C)(C)C)nc32)cc1,40
9,O=C(Nc1ccc(S(=O)(=O)NC2=NCCCCC2)cc1)c1ccc([N+](=O)[O-])s1,-46
10,Cc1ccc(NC(=O)CSc2nnc(C3CC3)n2N)cc1S(=O)(=O)N1CCOCC1,-1.56
11,CSc1ncccc1C(=O)NCCc1ccccc1,7.94
12,O=C(C[n+]1cccc(CNC(=O)c2ccc(OC(F)F)cc2)c1)c1ccccc1.[Cl-],-14.7
13,CCCC(C)c1nnc(NC(=O)C2CC(=O)N(c3ccc(OCC)cc3)C2)s1 (stereo not shown),-20.1
14,Cc1ccc(C)c(NC(=O)c2cc(-c3cc(C)cc(C)c3O)n[nH]2)c1,26.1
15,CCN(C(=O)CN1C(=O)/C(=C/c2ccccc2)SC1=S)C1CCS(=O)(=O)C1 (stereo not shown),20.8
16,CC(=O)c1cccc(NC(=O)Nc2ccc(C(=O)N3CCOCC3)cc2)c1,-0.351
17,O=C(O)CCNC(=O)/C(=C\c1ccco1)NC(=O)c1ccco1,10.7
18,Cl.c1ccc2c(c1)oc1c(NCCCn3ccnc3)ncnc12,-58.7
19,CCOC(=O)N1CCC(N(CCN(C)C)C(=S)Nc2ccccc2Cl)CC1,8.75
20,Cn1c(SCC(=O)NCCc2ccccc2)nnc1C1CCCCC1,21
21,CN[C@@H](C)[C@@H](O)c1ccccc1.Cl,6.56
22,O=C(NC(=S)Nc1sc2c(c1C(=O)O)CCCC2)c1ccccc1,3.77

row,Compound,"hERG current change (%, negative = inhibition) at 10uM [%]"
1,COC(=O)C(O)(CC(=O)Nc1ccc(OC)cc1)C(F)(F)F (stereo not shown),3.12
2,COc1cc(-c2noc(C)c2C(=O)NCCO)cc(OC)c1OC,7.69
3,Cc1c(C(=O)NCCc2ccc(S(N)(=O)=O)cc2)cccc1[N+](=O)[O-],11.6
4,CC(=O)Nc1cccc(-n2nnc(SCC(=O)N(C)c3ccccc3)n2)c1,5.28
5,Cc1cc(Cl)ccc1C(=O)C1CCCN(C(=O)CCn2cnnn2)C1 (stereo not shown),-5.17
6,N#CC1(NC(=O)CN2C(=O)c3ccc([N+](=O)[O-])cc3C2=O)CCCCC1,4.83
7,CN(C)S(=O)(=O)c1cccc(NC(=O)CCSc2ccc(Cl)cc2)c1,-6.16
8,COc1ccc(C(=O)NC(C)(C)C)cc1S(=O)(=O)N1CCCC1,-1.11
9,O=C(c1ccc(C(F)(F)F)cc1)C1CCCN(C(=O)c2cnccn2)C1 (stereo not shown),-16.5
10,CC(NC(=O)c1ccnn1C)C1CCCO1 (stereo not shown),16
11,COc1ccc(/C=N/n2c(C)nc3ccccc3c2=O)cc1OC,7.01
12,CCC(C)(C)n1nnnc1C(c1ccc(OC)c(OC)c1)N1CCN(C(=O)c2ccco2)CC1.Cl (stereo not shown),-27.9
13,C/C(=N/NC(=O)CCc1ccccc1)c1ccco1,9.7
14,Cc1ccc(OCCNC(=O)c2cccc(S(=O)(=O)N3CCN(C)CC3)c2)cc1,-16.6
15,O=c1c2ccccc2[nH]c(=S)n1Cc1ccccc1Cl,21
16,CCOc1ccc(-c2nc(S(=O)(=O)c3ccccc3)c(N3CCOCC3)o2)cc1,-30.1
17,O=C(Nc1ccc2c(c1)CCC2)C1CCCO1 (stereo not shown),2.89
18,CO/N=C/c1cccn1-c1nccc(N(C)C)c1C#N,-2.01
19,O=C(CN1CCN(c2nc(-c3ccccc3)cs2)CC1)NNC(=O)c1ccc(Br)cc1,0.759
20,CC(C)(C)Nc1nc(NC(C)(C)C)nc(-n2ccnc2)n1,-0.0313
21,CCO[C@H]1OC(C(=O)N2CCN(C)CC2)=C[C@@H](c2coc3ccccc3c2=O)[C@@H]1CCCO,8.9
22,CCOC(=O)c1c(-c2ccccc2)oc2ccc(OC(=O)N(C)C)cc12,-6.14
